{"source": "the supplement of paper PMC12632987", "binders": {"B1": {"name": "LC3A_28_761 (protein)", "chain": "MTPEEIVEKAIKEAKEFKEKGESAVITITVPDGATEEDVEIYIEGLEKIAEILKDMKNAAIIVDVDGGVKQENLDKIVDKAEEIEKKYPNVTVIIALDEE"}, "B2": {"name": "LC3A_3_1891 (protein)", "chain": "LEERIERTEELLREKGASEETIELFRKVMELLKARGYEEALKTLIEEVEELADLPDEILLDFLEEVLEVLETEDLSEEELIKKIKELARLARNEGEIIEL"}, "B3": {"name": "LC3A_17_580 (protein)", "chain": "SAEVEALYEEARKVIEEAAKFAAKHDAAAAKQIKALLAELDAAKATGDDRVILETIAALMDEVANILDSLEDKDPEAATLLSMEAEGVAIEAESLLLKLE"}, "B4": {"name": "LC3A_28_836 (protein)", "chain": "SFAEEEIKKAKKALEKAKETKEDVVVEVVIKSTMTPEEAQYIMDELEKEVSKLPKDVKVSIVFLAEEPVDPEVLQTIADGGDEIEEKYPNVTVIIALPEE"}, "B5": {"name": "LC3A_28_670 (protein)", "chain": "MELKEELEKKLAEAKKAAAKGEPTVFVLKVPGDATEEDIEYFIEKLEEIAELLKDVKGSAIIVDLSGDLSEEHRNKIIDRAEEINEKYPNVTVIIALEDR"}, "B6": {"name": "LC3A_3_1438 (protein)", "chain": "MEKLIKEAEEVLKKIGASEEAREAVLKLVRLALEAGEEELVEELIKVLKKAKNVPSEELLEAAEEALRLIEEEGVSVEEVMKRFIEEIRLLELEKEIEEL"}, "B7": {"name": "LC3A_28_1092 (protein)", "chain": "SALDASLEAALAETREAAARGEEVLVTITVDGSATEEDLERLKAALREIAEIAAGLPRLTVVVDLDGEKQREKADIIGAFADELEAEYPNLTVIIALDEE"}, "B8": {"name": "LC3A_28_1032 (protein)", "chain": "AALEESARAALAEAEAQLAAGEEAVVTLDVGDVDTETAKAVVAAFLAALRALSARHGGAKITVVINYDGDQETLDAIIDVADAAEAADPNLTVIIAYPDK"}, "B9": {"name": "LC3A_3_1671 (protein)", "chain": "MEELIEKLIELLKEKGASEEELEELLEAIEELKEVSSEEVVKTLIEEMLKAKDVPVEIMIEMVKDIVEKIKKENLSEEEQIELVKSEVAAARAEAEIEEL"}, "B10": {"name": "LC3A_3_1680 (protein)", "chain": "MEEKVKEVLKKLKENGFDEETIKAAKKLLEALKKKGYEKAIEELLKELEKLKDVPSEKVKDMFEDILRYVEEENPSEEEIVKLIREEAKTLLNDLEIEEL"}, "B11": {"name": "LC3A_3_1395 (protein)", "chain": "FEEIRKETIEYLKKAGKSEEVIKAAEEALELLEKRGYLEAAKTFLEELKKMKDVSDELLLWFLNEVINYLKTNDDDEETVIKKIKEFATIVKNESEIEEL"}, "B12": {"name": "LC3A_free_8_2456 (protein)", "chain": "SSQKLVDTAVKLLEEMEKELTELAKKEGLSRLDILELELEIGSLIAEVISLVDKSPEEILETTKEGLEEIIELAKELGEEVAKLAEEKSKEIIEELEKLI"}, "B13": {"name": "LC3A_45_2000 (protein)", "chain": "MWEITIDLLGPREKVEKAVELILEVVEEFSKETGIKIEVDEELIEASIEASKDEEEVFARIVIKIDGDEAHANELVQRLDEVLEEVGPGLSAIISVEKIE"}, "B14": {"name": "LC3A_28_1117 (protein)", "chain": "SVAEKILEEFKKQVEAAIESGEETVIEVKIPGTLSDEEVEELANEVAERAGEAAKKRPVSIVIDVDKDVSQESIDIIADKAEELEKAYPNVNVIIALEER"}, "B15": {"name": "LC3A_3_1684 (protein)", "chain": "MEEEVKKVLEEAKKNGWSEETLEALKELLELLKERGYLEAIKTILEEIKALADASSEDWKWMFEELLHKLKTEDLSEEEVVELIKEEAAVIRNAAEIEEL"}, "B16": {"name": "LC3A_127_215 (protein)", "chain": "ELEKLIEELLKILEEIQEELDKEDYDLEKIEKLLEEGIKVAKEALKLDPRFKEVLEDLEEALKLVKEMKNLDEAEQEEARERISMLIDGAIISVESLLLK"}, "B17": {"name": "LC3A_147_425 (protein)", "chain": "YKVVVEAYFLVKKDGTEALKAIEELAEELKKKGADKVEIEREEDEEDGTILVTVTLEATKETLEEAQAFADEVIDRFEELEEKYKDTLKLVAISVEITEA"}, "B18": {"name": "LC3A_3_1543 (protein)", "chain": "LEEELEELLRELRAAGASEETLEAVRRAFEALRERGYEEAARTFIEEMRRLLDAPSELLLEFAEEVLELVETSDLDEESLVREIREIARTIRSESEIIEL"}, "B19": {"name": "LC3A_free_46_2351 (protein)", "chain": "VKAEIEIDLLADDKETLEKAVKEIKEKIKEIAEKYGLELEIESEISKLEDGSYFARIKITLKGEKLEDVKKAVNELINEIEKIAEKYNVSAVISYEIIDE"}, "B20": {"name": "LC3A_23_609 (protein)", "chain": "MYLIDFEVDLIGEPEEIEKIEKELLEALEEFLEENKDKIVDYEIEVEREELEDGRTYLSIRLKILIDGTREEAEALANEITTIASEIAPDAVISVEVEEV"}, "B21": {"name": "LC3A_3_1828 (protein)", "chain": "LEEEKEELIKALKEAGHSEETIEAVKRTLEALLEKGYEEAAREFIELLKENLDLPSELLKELAEEVLELVETEDLSEEELTEKIRELTRLFVNESEIEEL"}, "B22": {"name": "LC3A_3_1364 (protein)", "chain": "AEALIEETLAFLRAQGKSEETIAAVRAALEALREAGYLEALEVFAELLREMADLPDELLLAFAEDVLAAVEAGELSEEELIEFIKSEAAVIRSEAEIEEL"}, "B23": {"name": "LC3A_147_392 (protein)", "chain": "WVVEVDIDILTKDAEEEVIAAFKALAEELKAEGFEVELEIETEQLDPDTTYIEVRITIKAPTREQAEAAAQRVLDKIDALEEKLKDKILGSIVSVEISEA"}, "B24": {"name": "LC3A_62_2053 (protein)", "chain": "KYKLEIEIDVLTESEEDAKEYAEALKEAVEKIKKEFPDVEFEVKVEVEGNYVTVTIKAIADTKEKIEEVKNALLDAIDEIEEKMKDKIKASIISYEISKL"}, "B25": {"name": "LC3A_3_1771 (protein)", "chain": "MEERLAAARARLEAAGFSPEVIERALAAIRAALEKGWERVADLILDLMLEMRDLPEIDKLTAAELALEIIEESETSEEELLKKVEDTMRNVAGIEALEEE"}, "B26": {"name": "LC3A_28_1028 (protein)", "chain": "SALRENAEKALAEAEAAFERGEEAVVTLRVPDIPKEEAVALVRDTLERLIALSKAHGGVKISVVIEHDGDQETADAIADVAEAAEAANPNLTVILALSEE"}, "B27": {"name": "LC3A_45_1973 (protein)", "chain": "MAKVTVDLLVPREKAEKAVEIIKKAAEELEKKSGGKLKFDYETLEESYEETKDEEEVYLRLVIYAPDEQLALDAAVEIVDRLEEELGMPVAAIISSEEEP"}, "B28": {"name": "LC3A_132_314 (protein)", "chain": "MEEEYKEIEKELEKLLKEIEKNIDDKEKVEKLLKELEKKLKEAEKKLTPEQVAELALKVADGLDEISRKALEAGKEDVALLLDAASVEAFSRSLRAEKKI"}, "B29": {"name": "LC3A_23_617 (protein)", "chain": "MYRVEVEAYAIVPREEAEATVERIRAAIEAILEKNKDKIKEYRIEVELEELEDGSVLITVRVTIVVDGDEETAKEIADEIEDALEAIAPNVVISREIEKL"}}, "note": "Whole data set: some 2,300 sequences, median “median log2 fold change of GCK-ALFA target abundance (FLAG IP / Myc IP barcode read proportion)” near 0.095, cut for the lowest 2% near -0.47. This is one part of the list.", "data": [{"biological_target": "MAP1LC3A, Q9H492", "assay": "median log2 fold change of GCK-ALFA target abundance (FLAG IP / Myc IP barcode read proportion) (log2 ratio); each designed protein is fused to an ALFA-tag nanobody in HEK293 cells to bring the named protein to FLAG-tagged glucokinase (GCK); Myc marks an untargeted standard; higher = target protein stabilised (more abundant)", "conditions": "target protein: 3xFLAG-MCP-GCK-ALFA reporter; HEK293 landing pad (RPLP)", "outline": "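Binders fused to an ALFA nanobody were recombined as a library into HEK293 landing-pad cells, which were induced with 2 μg mL^−1 doxycycline and then transfected to express a FLAG-tagged target and a Myc-tagged standard. After 48 h, circular RNA barcodes recovered by anti-FLAG and anti-Myc immunoprecipitation of lysates were reverse transcribed, amplified and sequenced. Each binder's target abundance is the median log2 ratio of FLAG to Myc barcode read proportions, from barcodes present at ≥10^−7 in both replicates, binders carrying ≥3 barcodes per replicate, a 10^−6 pseudocount and pooled replicates.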", "values": [{"binder": "B1", "median log2 fold change": -0.31}, {"binder": "B2", "median log2 fold change": -0.0314}, {"binder": "B3", "median log2 fold change": -0.0636}, {"binder": "B4", "median log2 fold change": 0.111}, {"binder": "B5", "median log2 fold change": -0.137}, {"binder": "B6", "median log2 fold change": 0.216}, {"binder": "B7", "median log2 fold change": 0.0777}, {"binder": "B8", "median log2 fold change": -0.2}, {"binder": "B9", "median log2 fold change": 0.32}, {"binder": "B10", "median log2 fold change": 0.337}, {"binder": "B11", "median log2 fold change": 0.436}, {"binder": "B12", "median log2 fold change": -0.163}, {"binder": "B13", "median log2 fold change": -0.0651}, {"binder": "B14", "median log2 fold change": -0.0935}, {"binder": "B15", "median log2 fold change": 0.284}, {"binder": "B16", "median log2 fold change": 0.125}, {"binder": "B17", "median log2 fold change": 0.147}, {"binder": "B18", "median log2 fold change": 0.179}, {"binder": "B19", "median log2 fold change": 0.106}, {"binder": "B20", "median log2 fold change": -0.664}, {"binder": "B21", "median log2 fold change": 0.152}, {"binder": "B22", "median log2 fold change": 0.0587}, {"binder": "B23", "median log2 fold change": 0.0656}, {"binder": "B24", "median log2 fold change": -0.0812}, {"binder": "B25", "median log2 fold change": 0.121}, {"binder": "B26", "median log2 fold change": 0.233}, {"binder": "B27", "median log2 fold change": 0.184}, {"binder": "B28", "median log2 fold change": 0.189}, {"binder": "B29", "median log2 fold change": -0.151}]}]}
